For 23 compounds, activation results are on record in PubChem BioAssay AID1346428 (National Center for Advancing Translational Sciences (NCATS), 2018).

The campaign covered roughly 48,000 compounds. About 1,200 (2.5%) were called active. Another 2% or so got no clear call; they are omitted.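 How the source made its calls: active means activation of at least 60% and not above a set upper limit (about 1 call in 100 departs from these limits); inconclusive means activation of 40% to 60%, or above that upper limit; inactive means activation under 40%.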 This is one part of the list.

The target in this experiment is Probable G-protein coupled receptor 32 (Homo sapiens) (UniProt O75388). The experiment in a line: qHTS for Agonists of Human Resolvin D1 Receptor DRV1. Further: 0% is about no effect. The settings on record: CHO-K1 GPR32 beta-arrestin PathHunter luminescence, 90 min; at 76.9 µM; stronger effect = higher value; zero percent set by DMSO-only wells. Put shortly: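 Agonism was scored by beta-Gal fragment complementation (chemiluminescent read, 1 h detection at ambient temperature) reporting beta-arrestin binding to GPR32 in engineered CHO-K1 cells. Compound treatment lasted 90 min at 37 C, normalized to a DMSO basal control.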
Chain of UniProt O75388 (O75388 whole entry, looked up, the tested form may be a part): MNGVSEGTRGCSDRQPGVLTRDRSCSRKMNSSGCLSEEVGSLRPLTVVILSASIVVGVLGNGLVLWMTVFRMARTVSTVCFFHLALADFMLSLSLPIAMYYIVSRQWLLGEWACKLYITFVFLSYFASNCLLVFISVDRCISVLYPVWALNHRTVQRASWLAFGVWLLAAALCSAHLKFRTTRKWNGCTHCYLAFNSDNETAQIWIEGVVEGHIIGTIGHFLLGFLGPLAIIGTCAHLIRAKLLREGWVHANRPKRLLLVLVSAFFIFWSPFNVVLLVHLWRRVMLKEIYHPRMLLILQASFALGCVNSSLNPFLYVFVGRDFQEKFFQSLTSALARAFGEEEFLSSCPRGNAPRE
`CC(=O)Nc1nonc1-c1nnc(SCc2ccccc2)n1C`: the activation was inactive: -0.677%. In the case of `COC(=O)c1cccc(CN2C(=O)SC(Nc3ccc(C)cc3)C2=O)c1` (stereo not drawn), the activation was inactive: -90%. With `Cc1ccccc1CNC(=O)C(=O)NCC(c1cccs1)S(=O)(=O)c1cccs1` (stereo not drawn), the activation is inactive: -2.5%. Turning to `C=Cc1ccc(Cn2c(SCC(=O)N3CCN(c4ccc(F)cc4)CC3)nc3ccccc32)cc1`, the activation was inactive: -9.74%. With `O=c1c2oc3ccccc3c2n(Cc2cccc(F)c2)c(=O)n1Cc1ccc2c(c1)OCO2`, the activation is inactive: -23.8%. In the case of `CCOc1ccc(-c2cc(C(=O)NCCc3ccc(OC)c(OC)c3)[nH]n2)cc1` it was inactive: 3.68%. Regarding `CN1CC(=O)N(CC(=O)Nc2ccc(OC(F)(F)F)cc2)c2ccccc2C1=O`, the activation was inactive: -32.6%.

For `CCc1ccc(NC(=O)Cn2c(=O)c3cc(Cl)ccc3n3nncc23)cc1`, the activation is inactive: -3.2%. On to `COc1cc(C2CC(=O)Nc3c2c(=O)n(C)c2ncnn32)cc(OC)c1OC` (stereo not drawn), for which the activation was inactive: -1.46%. Regarding `CCOC(=O)c1c(NC(=O)c2cc(CC)on2)sc(C(C)=O)c1C`, the activation is inactive: -8.42%.

With `C[C@@]12CCC[C@H]1[C@@H]1CC[C@H]3C[C@@H](O)CC[C@]3(C)[C@H]1CC2`, the activation was inactive: -41.7%. For `Cc1ccc(S(=O)(=O)c2cn(CC(=O)Nc3ccc(Cl)cc3)c3ccc(F)cc3c2=O)cc1C`, the activation was inactive: -3.32%. As to `Nc1cc(Cl)c(NC2=NCCN2)c(Cl)c1`, the activation is inactive: -0.0115%. As to `Cc1cccc(NC(=O)/C(C#N)=C/c2ccc(C)o2)c1`, the activation is inactive: -4.72%. As for `CCOC(=O)c1ccc(NC(=O)CCc2nc3cccnc3n2Cc2cccs2)cc1`, the activation is inactive: 45.7%. As for `CC(=O)c1ccc(N2CCN(c3ccc4cc(S(=O)(=O)N5CCC(C)CC5)ccc4n3)CC2)cc1`, the activation is inactive: -2.84%. The figure for `COc1ccc(N2CCN(C(=O)C3CCN(c4nc5ccc(C)cc5[nH]4)CC3)CC2)cc1` is inactive: -1.16%; for `COc1ccc(CCN2CCC(CNC(=O)c3cnn(-c4cccc(Cl)c4)c3C3CCN(C(=O)OC(C)(C)C)CC3)CC2)cc1` it is inactive: -20.8%; for `Cc1cccc(Cn2c(Cc3ccccc3)nc3ccccc32)c1` it is inactive: -42.4%. `O=C(CN1c2ccccc2S(=O)(=O)c2ccccc21)Nc1cccc(C(F)(F)F)c1`: the activation is inactive: 1.8%.

As for `CSc1ccc(CCNC(=O)c2c(C)oc3ncn(C)c(=O)c23)cc1`, the activation was inactive: -0.32%. Consider `CCOc1cc(S(=O)(=O)NCCc2c(C)[nH]c3ccc(C)cc23)ccc1Br`, for which the activation was inactive: 24.5%. Consider `Cc1cc(C)cc(-n2c(SCC(=O)NC3CCCCC3)nc3c([nH]c4ccccc43)c2=O)c1`, for which the activation is inactive: -11%.
